According to the supplement of paper PMC10126150:
Values marked as one replicate rest on one cluster of the flow cell; about a third of the high ones do not repeat.

Tested on: ATP
Test: switch fluorescence ratio, 500 uM ATP over buffer (Cy3 cluster intensity, sum of 5 cycles each) (fold (ratio)); higher = stronger signal-on switching upon ATP binding; sequences stand for … in TCGTCGGCAGCGTCAGATGTGTATAAGAGACAGTTTTTTTTTTTTTTTTTTTTTTTTT…TC
Conditions: aptamer strand: ATP DNA aptamer (quencher-CACCTGGGGGAGTATTGCGGAGGAAGG + anchor), 100 nM annealed; ATP concentration: 500 uM; one replicate
In short: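 Clusters carrying Cy3-labelled switching strands on a modified Illumina MiSeq flow-cell were annealed to 100 nM quencher-labelled ATP aptamer and imaged in selection buffer. They were imaged again after 15 min with 500 uM ATP at 22 °C, over five buffer/ATP cycles with NaOH stripping and re-annealing in between. For each cluster, the fluorescence ratio is the summed Cy3 intensity of the target cycles divided by that of the buffer cycles, averaged per switch-domain sequence. Clusters outside 100-1000 RFU were left out.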
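Further: ATP exposure 15 min at 22 °C before imaging.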

Row | Sequence | switch fluorescence ratio
1 | CCTAGTGAAA | 0.995
2 | AAATAGACTT | 1.09
3 | ACGCACTGGT | 1.49
4 | TAAAAAGTGC | 0.991
5 | CGTGGCGTCC | 0.981
6 | GTGCTAAGGC | 1.03
7 | ACGGGCTCAG | 1.02
8 | GAATAATCGA | 1.02
9 | TTTTATCTA | 0.998
10 | AAAGGCACGG | 1.07
11 | ACATGATTT | 1.01
12 | AGAAAGGACC | 1.05
13 | TTTTTCGT | 1.01
14 | TTCCGCTTGA | 1.03
15 | GTGCGAGCTA | 0.971
16 | TGGGTTTCAT | 1.01
17 | AGTATCCAAT | 1.03
18 | CCCTTGCCAC | 1.22
19 | CGTTTATGGC | 1.01
20 | GTCATGTGGG | 0.978
21 | AATTCAGAAT | 1.02
22 | ACAACCTAGG | 0.984
23 | AAATTATTG | 0.955

Row | Sequence | switch fluorescence ratio
24 | TTGTGCTAGC | 0.975
25 | TCCACGTCCT | 1.01
26 | ACCTATGACC | 1.08
27 | GTGGCAGCAG | 0.994
28 | CCGGGTGCCT | 1.17
29 | TTTTGCACAC | 1.02
30 | TTATACTCCC | 4.02
31 | GCACATACAA | 1.39
32 | AGCGCCATGG | 0.982
33 | TATTTTTGAG | 0.965
34 | AACCGTAGCC | 1.47
35 | CTGAACTCGG | 1.05
36 | TTAGACGGCA | 1.06
37 | CTCGACATGA | 1.04
38 | GTGAGGATGA | 1
39 | TACTCAAGA | 1.2
40 | CTCAAGGCGT | 1.03
41 | TCGACCGGGA | 1.08
42 | TTTCGGCCGG | 1.06
43 | TGGGCGAGCA | 1
44 | CTCGTCGGGC | 0.984
45 | GTAAGTCCGT | 0.995
46 | GTTTATAGT | 1

Row | Sequence | switch fluorescence ratio
47 | AACATGTGCC | 1.03
48 | ATGGGCGGAA | 1.02
49 | CCCAGGGCTT | 1.41
50 | GATCTTGAGG | 1.07
51 | GGTCTCCAAC | 1.01
52 | AACACCAGCT | 0.992
53 | TGGGGCTGCA | 0.938
54 | ATGTGCAAGA | 1.07
55 | TAAGGGTTGT | 1.02
56 | GAGCTAGAGT | 1.04
57 | TCTTGGGATA | 1.01
58 | GCAGGATTAG | 0.949
59 | CTTGCTATTT | 1.02
60 | GGTGTACGC | 0.984
61 | GAGATGTTGT | 1
62 | GTTTGTCTGT | 1
63 | TCAGGAGGTT | 1
64 | CCACTCTCCT | 1.07
65 | CCTCCATGGA | 1.25
66 | AGCGGCAGGG | 1.02
67 | AAGGTCCCCC | 1.01
68 | CTAATCGGAA | 1.05
69 | GCCCGAATTC | 1.08

Row | Sequence | switch fluorescence ratio
70 | TTGAAATT | 0.998
71 | GTGCCCTATG | 0.978
72 | TGAAGGCGAT | 0.995
73 | AAAGGTAAGA | 1
74 | TACTAACGGC | 1.51
75 | TGGGTTCT | 1
76 | TTTTCGCCCG | 1.08
77 | AATCTTGTA | 0.962
78 | ACATTTGCCG | 1
79 | TAAGATATAA | 1
80 | GAGCGGGACT | 1.41
81 | ACAACATGTG | 1.03
82 | TTCTACCACG | 0.987
83 | TAAGGTCGT | 1.02
84 | ACCTAATTCT | 1.02
85 | CGGAGATATA | 0.982
86 | GGCTGGGGGC | 1.03
87 | CAATGGATGG | 0.975
88 | CGCGTCTGT | 0.971
89 | ATGCTCTTCA | 1.03
90 | GGCGGATCTT | 1
91 | GATTTCCTT | 1.03
92 | ACGTGCGGGG | 1.02

Row | Sequence | switch fluorescence ratio
93 | TTGGTGACAT | 0.993
94 | CGGGGAGCGA | 1.01
95 | TAGGCAAGTT | 0.953
96 | CCTGGTCTTT | 1
97 | CAAGCGGG | 1.18
98 | CGTGCGCGCT | 0.994
99 | AAATCTAGGA | 0.999
100 | GGGTGTTATG | 0.985
101 | TGTATTTGCT | 1.02
102 | TATTGTAGTA | 0.999
103 | CAGCCTTGGG | 0.962
104 | GGCTCTTTTT | 1.01
105 | AAAGATGCT | 1.02
106 | GTAGTTCGAC | 1.01
107 | CAGTAAAGGC | 0.983
108 | TGGGCTTCAA | 1.04
109 | GTTAATGGA | 0.987
110 | AGGTTGCGAA | 0.959
111 | TTCGCTCTCG | 1.02
112 | TGATGGATGG | 0.978
113 | CAATGTAGCT | 0.982
114 | GCTAGAGAGA | 0.962
115 | CCCGCCCACT | 1.67

Row | Sequence | switch fluorescence ratio
116 | TCTGTCACCA | 1.1
117 | TAGTGGCCTT | 0.953
118 | AACAGTCAGA | 1.03
119 | TGAAAGGATG | 0.986
120 | CCGTACGGTA | 1.03
121 | GAGACGCTAA | 1.28
122 | AATCTGTCG | 1.04
123 | TACTCTGAGG | 1.02
124 | GCCATGAGTG | 1.01
125 | GGGCCCAGGG | 1.13
126 | GGATCTGCAT | 1.41
127 | TTTGGCTCTC | 0.973
128 | TTCGGAATAA | 1.26
129 | GTGGAGGATG | 1.04
130 | CGAACCAAAT | 0.99
131 | CTCTGCCGGT | 1.05
132 | TAAGACCCCT | 1.09
133 | AGAGGAGATT | 1
134 | GCATAC | 4.02
135 | TATGTTCATT | 1.01
136 | GTCACGGTCG | 1.03
137 | GCACATGTCT | 1.12
138 | GTAAAGAAAT | 1.08

Row | Sequence | switch fluorescence ratio
139 | GTACGTATGG | 1.13
140 | CGCAGAAAAC | 1.06
141 | AGCTAAATC | 1.02
142 | TACTCGACGT | 1.05
143 | ACTTTTAGCG | 1.06
144 | AGGGAATCTG | 0.982
145 | ACGGCGGAGA | 1.02
146 | CGGACATAGG | 0.989
147 | GATTTGCGTC | 0.976
148 | GTGTAACTAC | 1.04
149 | CACTTTTGTT | 0.959
150 | GAACTTAACA | 1.07
151 | CCTTGGATAG | 1.07
152 | AGGTCAGGCT | 1.04
153 | CAACCAGGT | 1.63
154 | CATTAAATAT | 0.985
155 | TCCCACGAGA | 0.997
156 | AAGACTAAGC | 1.03
157 | GCGTAGCCA | 0.984
158 | CCCATCATTG | 1.03
